The whole screen tested about 310,000 compounds, of which about 14,000 (4.5%) showed an effect of 50% or more. The effect is printed as a negative number. The list shows a part of the results.
Target: human ether-à-go-go-related gene (hERG) potassium channel (human, UniProt Q12809)
Experiment: primary screen, population patch clamp on CHO cells stably expressing hERG
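Note: peak tail current of the secondary pulse compared with the same well before compound.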

Chain of human ether-à-go-go-related gene (hERG) potassium channel (Q12809 whole entry, looked up): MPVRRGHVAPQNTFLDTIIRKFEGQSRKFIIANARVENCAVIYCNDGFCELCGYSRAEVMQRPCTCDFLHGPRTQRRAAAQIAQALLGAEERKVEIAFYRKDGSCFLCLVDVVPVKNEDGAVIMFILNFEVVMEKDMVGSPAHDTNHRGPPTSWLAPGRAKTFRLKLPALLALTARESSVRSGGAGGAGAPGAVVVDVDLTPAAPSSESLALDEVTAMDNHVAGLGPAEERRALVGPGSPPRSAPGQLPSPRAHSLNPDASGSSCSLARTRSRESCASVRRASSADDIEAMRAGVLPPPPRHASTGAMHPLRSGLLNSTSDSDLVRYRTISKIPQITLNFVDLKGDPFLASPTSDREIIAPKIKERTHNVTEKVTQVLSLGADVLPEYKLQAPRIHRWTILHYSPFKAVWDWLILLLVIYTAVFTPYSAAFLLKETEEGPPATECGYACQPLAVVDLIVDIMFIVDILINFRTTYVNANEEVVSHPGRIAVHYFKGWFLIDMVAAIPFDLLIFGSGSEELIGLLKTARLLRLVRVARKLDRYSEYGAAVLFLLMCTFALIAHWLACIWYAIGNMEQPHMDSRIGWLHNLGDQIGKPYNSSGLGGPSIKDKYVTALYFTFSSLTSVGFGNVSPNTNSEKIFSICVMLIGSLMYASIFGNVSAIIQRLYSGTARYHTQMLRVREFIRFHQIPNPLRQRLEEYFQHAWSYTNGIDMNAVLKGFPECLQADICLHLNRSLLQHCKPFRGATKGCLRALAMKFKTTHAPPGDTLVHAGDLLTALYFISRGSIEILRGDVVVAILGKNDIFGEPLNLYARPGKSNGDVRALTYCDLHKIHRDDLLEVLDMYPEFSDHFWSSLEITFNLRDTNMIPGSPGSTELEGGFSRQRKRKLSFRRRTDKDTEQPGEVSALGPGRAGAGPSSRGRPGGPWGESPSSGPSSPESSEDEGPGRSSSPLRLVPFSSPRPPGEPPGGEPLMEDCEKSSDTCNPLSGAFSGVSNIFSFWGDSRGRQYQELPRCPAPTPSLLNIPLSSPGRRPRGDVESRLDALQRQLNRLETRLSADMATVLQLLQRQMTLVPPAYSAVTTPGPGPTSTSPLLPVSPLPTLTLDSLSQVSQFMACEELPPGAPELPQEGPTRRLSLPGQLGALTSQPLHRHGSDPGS

Structure (SMILES) | hERG current change (%, negative = inhibition) at 10uM [%]
O=C(O)c1ccc2c(c1)OCCO2 | 3.19
OCCSc1nc(N2CCOCC2)nc(N2CCOCC2)n1 | 4.34
CCN(C(=O)N1CCOCC1)c1ccccc1 | 18.1
CCCC(=O)Nc1ccc2nc(SCC(=O)Nc3ccc(N4CCOCC4)c(Cl)c3)sc2c1 | 14.8
Cc1cc(/C([O-])=C(/C(=S)Nc2ccc(F)cc2)[n+]2ccccc2)c(C)n1-c1ccc(F)cc1 | -4.59
CCC(=O)N1CCN(c2ccc(OC)cc2[N+](=O)[O-])CC1 | -19.5
NS(=O)(=O)c1ccc(CCNC(=O)Nc2ccc(Cl)c(Cl)c2)cc1 | 15.3
CCCn1c(CN2CCN(C(C)=O)CC2)nc2cc(S(=O)(=O)N(C)C)ccc21 | 9.97
CC1CCCC(C)N1/N=C/C=C/c1ccccc1[N+](=O)[O-] (stereo not drawn) | 11.1
CCCc1nn(C)c2c1C(c1ccncc1)C(C#N)=C(N)O2 (stereo not drawn) | 15.4
CNC(=S)N(CCc1c(C)[nH]c2ccc(Cl)cc12)Cc1cccnc1 | -8.94
COc1ccccc1/C=C/CN1CCC(n2nccc2NC(=O)CCc2ccccc2)CC1 | -86.1
CCn1c(/C=C\c2ccccc2C)nc2ccccc2c1=O | -19.1
CS(=O)(=O)Nc1ccc(C(=O)Nc2cccc([N+](=O)[O-])c2)cc1 | -35.2
Nc1cccc(N=Cc2c(O)n(Cc3ccc(F)cc3)c(=O)[nH]c2=O)c1 | -10.2
CC(=O)N1N=C(c2ccc([N+](=O)[O-])cc2)CC1c1ccccc1Cl (stereo not drawn) | -66
CC1(C)Cc2ccccc2C(C(=O)c2ccccc2)=N1 | 3.5
Cc1ccc(N(CC(=O)Nc2cc(Cl)ccc2Oc2ccccc2)S(C)(=O)=O)cc1C | 14.3
Cc1nn(C)c(Oc2ccc(Cl)cc2)c1C=O | 3.68
O=C(NNC(=O)c1ccccc1Cl)c1cc2cc(OC(F)(F)F)ccc2[nH]1 | 2.86
Cn1cc(C(=O)N2CCOCC2)c2ccccc21 | 8.49
CCCN1C(=O)NC2(O)C(=O)c3ccccc3C12O (stereo not drawn) | 10.9

Structure (SMILES) | hERG current change (%, negative = inhibition) at 10uM [%]
CC(=O)c1ccc(NC(=O)c2ccc([N+](=O)[O-])o2)cc1 | 5.98
COc1ccc(/C=C/c2nc3ccccc3n2Cc2ccc(OC)c(OC)c2)cc1 | 1.72
CN(C)c1ccc([C@@H]2[C@@H]([N+](=O)[O-])[C@H]3C=Cc4ccccc4N3[C@H]2C(=O)c2ccc(Cl)cc2)cc1 | 2.22
O=[N+]([O-])c1c(Nc2ccccc2O)cc(N2CCOCC2)c2nonc12 | -22.1
CCOC(=O)C(C)Sc1nnc(NC(=O)c2ccc(C)c([N+](=O)[O-])c2)s1 (stereo not drawn) | -6.35
CCOc1ccc(-n2c(=S)sc3c(=O)[nH]c(SCC(=O)NCc4ccco4)nc32)cc1 | 2.72
CC1(OC(=O)C2CCCC2)C(=O)C=C2C=C(c3ccsc3)OC=C2C1=O (stereo not drawn) | -1.14
CCOC(=O)C1(Cc2ccc(O)cc2)NC(c2ccco2)C2C(=O)N(c3ccccc3F)C(=O)C21 (stereo not drawn) | -12
Cc1noc(C)c1C(=O)OCC(=O)Nc1ccccc1Oc1ccccc1 | -12.6
CCN1CCc2c(sc(NC(=O)CN3C(=O)c4ccccc4C3=O)c2C(N)=O)C1.Cl | -36.6
Cc1onc(-c2c(Cl)cccc2Cl)c1C(=O)N1C(C)CCCC1C (stereo not drawn) | 1.05
CCOC(=O)N1CCN(CC(=O)Nc2ccc(Oc3ccccc3)cc2)CC1 | -50.1
CCOC(=O)c1cccc(NC(=O)CCc2c(C)nc3ncnn3c2C)c1 | -27.1
Cc1onc(-c2ccccc2)c1C(=O)N1CCCN(C(=O)c2c(-c3ccccc3)noc2C)CC1 | -13.9
O=c1ccn(-c2cccc(C(F)(F)F)c2)nc1-c1ccn(-c2ccccc2F)n1 | -47.2
O=C(CSc1nc2ccccc2c(=O)n1Cc1ccco1)N1CCN(c2ccccc2)CC1 | -74.9
COc1ccc(CNCCC(c2ccccc2)c2ccc3c(c2)OCO3)cc1.Cl (stereo not drawn) | -75
COc1cc(S(=O)(=O)N2CCN(Cc3cccs3)CC2)ccc1NC(C)=O | -14.6
O=[N+]([O-])c1nn(-c2cccc(Cl)c2)n(O)c1=NCc1cccnc1 | -18.3
O=C(NCc1ccon1)C1CCC(=O)N(Cc2cccc(C(F)(F)F)c2)C1 (stereo not drawn) | 8.13
O=C(Nc1ccc2c(c1)Cc1ccccc1-2)c1ccc(Br)o1 | 1.68
Cc1ccccc1OCC(=O)NNC(=O)c1ccc(-n2cncn2)c([N+](=O)[O-])c1 | -6.3

Structure (SMILES) | hERG current change (%, negative = inhibition) at 10uM [%]
O=C(Nc1ccc2oc(-c3ccncc3)nc2c1)c1ccc2c(c1)OCO2 | 1.44
O=c1cccc2n1CC1CC2CN(Cc2c(F)cccc2Cl)C1 (stereo not drawn) | -26.2
Cc1cccc(N(CC(=O)NC(C)C)C(=O)c2ccc(N3CCCC3)nc2)c1 | 4.32
CC(C)NC(=O)CCCc1ccccc1 | -6.5
O=C(Nc1ccc(Oc2ccccc2)cc1)c1ccc(Cn2c(=O)[nH]c3ccsc3c2=O)cc1 | -2.52
COC(=O)[C@@H]1C[C@@]2(O)[C@H](O)[C@H](O)[C@H](O)C[C@H]2N1CC1CC1 | 6.98
COc1ccc(/C=N/c2nc3ccccc3n2CCN2CCCCC2)cc1OC | -14.3
O=C1NC(=O)N(c2ccccc2)C1=O | 19.9
Cc1cccc(NC(=O)N2CCCCCC2)c1C | 13.2
Cc1noc(C)c1COc1ccccc1C(=O)Nc1ccc(C(N)=O)cc1 | -9.65
C=CCn1c(SCC(=O)Nc2ccc(C)cc2C)nnc1-c1cccnc1 | -14.2
Cc1cccc(Nc2ccc(NCc3ccccc3)nn2)c1 | -51.8
NC(=O)C1CCN(S(=O)(=O)Cc2ccccc2Cl)CC1 | 14.8
C=CCN(C(C)=O)C1CC(=O)N(c2ccc(OCCC)cc2)C1=O (stereo not drawn) | -12.1
COc1ccc(-c2cc(=O)oc3cc(OCC(=O)N4CCOCC4)ccc23)cc1 | -42.1
O=C(NCCN1C(=O)CCC1=O)c1ccncc1 | 2.52
O=C(NN1C(=O)c2ccccc2NC1c1ccc([N+](=O)[O-])o1)c1ccc([N+](=O)[O-])cc1 (stereo not drawn) | -65.5
CCOc1ccc(C)cc1S(=O)(=O)NC1CCCCCC1 | -3.2
COc1ccccc1-n1c(-c2ccc(Cl)cc2)c[nH]c1=S | 6.03
CC1CCC(C)(NS(=O)(=O)OCC(Cl)(Cl)Cl)CC1 (stereo not drawn) | -21.7
O=C(Nc1ccc(NC(=O)c2ccco2)c(Cl)c1)c1ccc2c(c1)OCCO2 | 10.1
COc1ccccc1C(=O)NCCn1ccc2ccccc21 | -7.18

Structure (SMILES) | hERG current change (%, negative = inhibition) at 10uM [%]
O=C(O)c1ccc(OC(F)(F)C(F)C(F)(F)F)cc1 (stereo not drawn) | 13.7
COc1cccc(NC(=S)Nc2cc(C)cc(C)n2)c1 | 2.06
NS(=O)(=O)c1ccc(CCNC(=O)CN2CCN(c3ccccc3O)CC2)cc1 | 13.5
O=C(CSc1nc2c(oc3ccccc32)c(=O)n1CC1CCCO1)NCc1ccccc1 (stereo not drawn) | -15.8
CC1(C)OC(=O)C(=CNc2ncccn2)C(=O)O1 | 1.3
COc1ccc(NC(=O)NC2(C(=O)N3CCN4CCCC4C3)CCCCC2)cc1 (stereo not drawn) | 12.1
COCCN1C(=O)N[C@@H](c2ccccc2)[C@@H](C(=O)OC)[C@H]1C | 2.28
O=C(CCN1C(=O)C2CCCCC2C1=O)Nc1nc(-c2ccccc2)cs1 (stereo not drawn) | 4.09
CCc1ccc(C(C(=O)NC2CCCCC2)N(C(=O)c2ccccn2)c2cccnc2)cc1 (stereo not drawn) | 17.2
Nc1cccc(S(=O)(=O)Nc2ccc(Br)cc2)c1 | -2.08
O=C(COC(=O)c1ccc(Cl)s1)c1ccc[nH]1 | 0.085
Cc1cc(NC(=O)CSc2nc3ccc(Cl)cc3[nH]2)no1 | 9.82
CCOC(=O)c1c(CN(C)C)n(C)c2ccc(OC(C)=O)cc12.Cl | -41.3
CC(=O)N(CN1C(=O)c2ccc([N+](=O)[O-])cc2C1=O)c1ccc(F)cc1 | -1.91
Cc1ccc(C)n1-c1ccc(C(=O)NN)cc1 | 16.8
CC(C)Oc1ccc(CCNC(=O)C2CCC(=O)N(C3CCCCCC3)C2)cc1 (stereo not drawn) | 7.05
O=c1c(Cc2ccccc2)c(O)ccn1Cc1ccco1 | 17.8
CNC(=S)NNC(=O)c1sccc1OCc1ccccc1 | 17.8
Cc1ccc(OC(=O)c2ccc(N3CCOCC3)c([N+](=O)[O-])c2)cc1 | -4.31
O=C(N/N=C/c1ccccn1)c1ccc(Cl)c(Cl)c1 | -11.2
CCOC(=O)c1oc2cc(C)cc(O)c2c(=O)c1-c1csc(C)n1 | 1.3

Reference: article PMC4336329 (PLoS ONE, 2015)
